# Hit rate of the full screen: of about 310,000 compounds, about 2,200 (0.71%) showed an effect of 50% or more. Effects have a minus sign here. This is one part of the list.
# Molecular target: human ether-à-go-go-related gene (hERG) potassium channel (human, UniProt Q12809)
# Experiment: primary screen, population patch clamp on CHO cells stably expressing hERG
# Sequence of human ether-à-go-go-related gene (hERG) potassium channel (Q12809 whole entry, looked up): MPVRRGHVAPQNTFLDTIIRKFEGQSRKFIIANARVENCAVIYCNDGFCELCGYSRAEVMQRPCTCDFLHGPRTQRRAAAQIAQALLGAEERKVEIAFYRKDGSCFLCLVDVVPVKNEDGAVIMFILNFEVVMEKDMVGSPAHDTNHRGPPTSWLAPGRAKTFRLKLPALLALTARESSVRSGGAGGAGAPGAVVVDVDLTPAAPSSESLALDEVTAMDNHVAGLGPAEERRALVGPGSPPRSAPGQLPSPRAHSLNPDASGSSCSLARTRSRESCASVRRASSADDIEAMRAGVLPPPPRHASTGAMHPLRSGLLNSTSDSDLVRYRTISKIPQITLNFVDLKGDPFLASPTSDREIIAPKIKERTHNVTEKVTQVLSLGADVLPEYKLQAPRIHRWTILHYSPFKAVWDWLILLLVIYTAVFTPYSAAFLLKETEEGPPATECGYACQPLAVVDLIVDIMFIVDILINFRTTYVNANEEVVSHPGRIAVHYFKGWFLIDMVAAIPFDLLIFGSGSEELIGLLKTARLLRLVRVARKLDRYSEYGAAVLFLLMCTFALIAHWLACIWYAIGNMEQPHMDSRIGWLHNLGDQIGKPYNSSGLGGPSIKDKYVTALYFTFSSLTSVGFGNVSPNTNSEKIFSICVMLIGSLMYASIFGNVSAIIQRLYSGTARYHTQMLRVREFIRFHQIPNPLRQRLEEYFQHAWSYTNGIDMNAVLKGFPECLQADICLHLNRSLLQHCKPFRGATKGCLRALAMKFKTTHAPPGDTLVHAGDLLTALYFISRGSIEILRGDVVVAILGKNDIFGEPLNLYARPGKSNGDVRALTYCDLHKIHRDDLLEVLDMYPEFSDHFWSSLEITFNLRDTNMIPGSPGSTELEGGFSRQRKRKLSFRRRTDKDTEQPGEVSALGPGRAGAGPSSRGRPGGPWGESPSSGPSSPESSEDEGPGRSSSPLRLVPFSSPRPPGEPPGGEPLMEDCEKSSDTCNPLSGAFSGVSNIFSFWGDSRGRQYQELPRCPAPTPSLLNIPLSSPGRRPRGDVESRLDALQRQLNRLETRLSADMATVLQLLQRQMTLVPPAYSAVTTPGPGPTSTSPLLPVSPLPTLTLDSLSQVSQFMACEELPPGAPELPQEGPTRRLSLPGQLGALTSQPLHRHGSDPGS
row,Structure (SMILES),"hERG current change (%, negative = inhibition) at 1uM [%]"
1,COc1ccc(N2CCC(CNC(=O)Nc3ccc(Cl)cc3)C2)cc1 (stereo not drawn),10.9
2,Cc1ccc(NC(=O)/C=N/OCC(=O)NCc2ccccc2Cl)cc1,6.66
3,COc1cc(CNC(=O)CCCC(=O)c2ccccc2)cc(OC)c1OC,15.2
4,CCN(Cc1ccncc1)C(=O)CCc1nnc(CCc2ccccc2OC)o1,12.6
5,N#Cc1c(N)oc(-c2ccc3c(c2)OCO3)c1-c1ccc2c(c1)OCO2,-4.76
6,O=C(CSc1n[nH]c(=O)n1-c1ccccc1)Nc1ccccc1,8.54
7,CCCCCn1c(=O)c(C(=O)Nc2ccccn2)c(O)c2ccccc21,19.6
8,CCOc1cc(C2NC(=O)NC(C)=C2C(=O)OCc2ccccc2)ccc1O (stereo not drawn),11.8
9,O=C(OCC(=O)N1CCCC1=O)c1ncc(Cl)c(Cl)c1Cl,10.2
10,CCN(CC)S(=O)(=O)c1ccc(N2CCOCC2)c(NC(=O)c2ccc(C#N)cc2)c1,-11.2
11,CC(C)N(C(=O)Cn1cc(SCC(=O)NCC2CCCO2)c2ccccc21)C(C)C (stereo not drawn),-14.8
12,Cc1cccc(C)c1OCC(=O)NCC1COc2ccccc2O1 (stereo not drawn),3.69
13,Cc1ccc(C(=O)OC(C)C(=O)NC2CCCCC2C)cc1S(=O)(=O)N1CCCCC1 (stereo not drawn),11.1
14,CC1(C)CC(=O)C=C(c2ccc(F)nc2)C1,16.6
15,C#CCOCCOCCOCCNc1nc(N2CCOCC2)nc(N2CCN(C(=O)CCCCCCCCCCNC(=O)[C@@H](CCSC)n3cc(CCO)nn3)CC2)n1,3.78
16,CCCCCCCn1c2c(c(=N)c3ccccc31)CCC2.I,-89.6
17,COc1ccc(Nc2nc(-c3ccccc3)c(C(=O)Nc3cccnc3)s2)cc1,1.01
18,CCOC(=O)c1cccc(NC(=O)/C=C/c2ccc([N+](=O)[O-])cc2)c1,3.37
19,CC1CCCN(c2ccc(C(=O)Nc3ccc4c(c3)OCO4)cc2[N+](=O)[O-])C1 (stereo not drawn),0.271
20,COc1ccccc1NC(=O)c1ccc(N2CC3CC(C2)c2cccc(=O)n2C3)c(NC(=O)c2ccncc2)c1 (stereo not drawn),11
21,CC1CCCN(CCCN2C(=O)C3C(C(=O)Nc4cccc(Cl)c4)C4C=CC3(O4)C2C(=O)NC2CCCCC2)C1 (stereo not drawn),16.1
22,CCOC(=O)C(=O)N=Nc1c(O)n(C)c2ccccc12,-3.2
23,CNS(=O)(=O)c1ccc2c3c(cccc13)C(=O)N2,10.1
24,CCCC(=O)C1=C(O)C(C(=O)OC)C(C)(C)CC1=Nc1ccc(OC)cc1 (stereo not drawn),10.8
25,Cc1sc2ncnc(N/N=C/c3cccc(O)c3)c2c1C,-5.14
26,CC(C)C(=O)Nc1ccc(C(=O)NNC(=O)C(c2ccccc2)c2ccccc2)cc1,6.07
27,COCC(=O)NC(C)c1nc2ccccc2[nH]1 (stereo not drawn),5.71

row,Structure (SMILES),"hERG current change (%, negative = inhibition) at 1uM [%]"
1,CCOC(=O)COc1ccc([N+](=O)[O-])cc1,4.52
2,CSCCC(NC(=O)c1ccccc1Br)C(=O)Nc1ccc(C)cc1 (stereo not drawn),7.5
3,COc1cc(C(=O)Nc2ccccc2N2CCCCC2)cc(OC)c1OC,4.26
4,Cc1ccnc(SCC(=O)c2cccc([N+](=O)[O-])c2)n1,5.6
5,CN(CC(=O)Nc1ccccc1Cl)C(=O)CCc1nc2ccccc2c(=O)[nH]1,-11.3
6,COc1ccc(S(=O)(=O)N(C)c2ccc(C(=O)Nc3cccnc3)cc2)cc1OC,7.55
7,CC1CC(C)(C)NC(=S)N1CCC(=O)NCc1ccc(Cl)cc1 (stereo not drawn),-4.99
8,O=C(c1ccc(Cl)cc1)C1CCCN(Cc2cccn2-c2cccnc2)C1 (stereo not drawn),2.77
9,N/C(=N\OCc1ccc([N+](=O)[O-])cc1)c1ccncc1,1.6
10,CCOCCc1c(O)[nH]c(=S)[nH]c1=O,14.3
11,COc1ccc(/C=N/Nc2nncc3ccccc23)cc1,11.1
12,CC(=O)OCC#CCSc1nc2ccccc2n1C,8.19
13,Cc1cc(N)n(-c2ncnc3scc(-c4ccc(Cl)cc4)c23)n1,9.54
14,O=C(/C=C/c1ccc(O)c(O)c1)OC1C(O)CC(OC(=O)/C=C/c2ccc(O)c(O)c2)(C(=O)O)CC1O (stereo not drawn),8.47
15,CC(C)(C)C1CCC(=NNC(=O)CC(=O)NCc2ccccc2)CC1 (stereo not drawn),10.2
16,C#CCOCCOCCOCCNc1nc(N2CCN(C(=O)[C@H](Cc3ccc(O)cc3)n3cc([C@@H](N)C(C)CC)nn3)CC2)nc(N2CCN(C(=O)[C@H](Cc3cc4ccccc4[nH]3)n3cc([C@@H](N)C(C)CC)nn3)CC2)n1.Cl (stereo partly drawn),4.13
17,Cc1ccc(C(=O)NCC(C)NC(=O)c2ccc(C)c([N+](=O)[O-])c2)cc1[N+](=O)[O-] (stereo not drawn),12.4
18,CC(C)(C)n1nc2c(c1NC(=O)c1cccc(Cl)c1)CS(=O)(=O)C2,0.55
19,O=C(N/N=C/c1ccc([N+](=O)[O-])o1)c1cc2ccccc2o1,-7.07
20,OCC1(CCOc2ccccc2)CCN(Cc2cn[nH]c2-c2ccccc2)CC1,-68.3
21,COc1ccc(C)cc1-n1nnnc1SCc1cc(=O)n2cc(C)ccc2n1,-8.45
22,O=C(Nc1nc2ccccc2[nH]1)c1ccccc1,11
23,COc1ccc(S(N)(=O)=O)cc1C(=O)NC1CCCc2ccccc21 (stereo not drawn),12.3
24,S=c1[nH]nc(-c2cccnc2)n1/N=C/c1ccco1,9.66
25,Cc1ccc(NC(=O)CSCC#N)cc1Cl,2.92
26,O=C(CCCSc1nc(-c2ccco2)cc(C(F)(F)F)n1)NCc1cccs1,10.8
27,NC(=O)CC(NC(=O)Cc1ccc(Br)cc1)c1ccc(NCc2cc(F)ccc2F)c([N+](=O)[O-])c1 (stereo not drawn),-0.104

# From paper PMC4336329 (PLoS ONE, 2015)
